Patent US20100150918A1 (MICROMET, published 2010)

Molecular target: T1, 1-27 CD3-Fc (human)
T1 construct: also called 27 aa huCD3E; human CD3 epsilon (aa 1-27)-Fc fusion protein
Experiment: SPR (Biacore), 1-27 CD3-Fc immobilised

Kd [nM]	Binder
1010	EGFR-21-63 LH × F7O HLP (bispecific antibody, also called EGFR LH × F7O HLP) DIVLTQSPASLPVSLGQRATISCRASQSVSSSTYSYIHWYQQKPGQPPKLLITYASNLESGVPARFSGSGSGTDFTLDIHPVEEDDSSTYYCQHSWEIPFTFGSGTKLEIKGGGGSGGGGSGGGGSQVQLQQSGPDLVKPGASVKMSCKASGHTFTDCVIIWVKQRAGQGLEWIGQIYPGTGRSYYNEIFKGKATLTADKSSNTVHIQLSSLTSEDSAVYFCALSTLIHGTWFSYWGQGTLVTVSSGGGGSEVQLLESGGGLVQPGGSLKLSCAASGFTFNVYAMNWVRQAPGKGLEWVARIRSKYNNYATYYADSVKKRFTISRDDSKNTAYLQMNNLKTEDTAVYYCVRHGNFGNSYISWWAYWGQGTLVTVSSGGGGSGGGGSGGGGSELVVTQEPSLTVSPGGTVTLT[about 80 residues left out here]FGGGTKLTVL
2540	EGFR-21-63 LH × H1E HLP (bispecific antibody, also called EGFR LH × H1E HLP) DIVLTQSPASLPVSLGQRATISCRASQSVSSSTYSYIHWYQQKPGQPPKLLITYASNLESGVPARFSGSGSGTDFTLDIHPVEEDDSSTYYCQHSWEIPFTFGSGTKLEIKGGGGSGGGGSGGGGSQVQLQQSGPDLVKPGASVKMSCKASGHTFTDCVIIWVKQRAGQGLEWIGQIYPGTGRSYYNEIFKGKATLTADKSSNTVHIQLSSLTSEDSAVYFCALSTLIHGTWFSYWGQGTLVTVSSGGGGSEVQLLESGGGLEQPGGSLKLSCAASGFTFNSYAMNWVRQAPGKGLEWVARIRSKYNNYATYYADSVKGRFTISRDDSKNTAYLQMNNLKTEDTAVYYCVRHGNFGNSYLSFWAYWGQGTLVTVSSGGGGSGGGGSGGGGSELVVTQEPSLTVSPGGTVTLT[about 80 residues left out here]FGGGTKLTVL
